Test system: CEM cell line
Experiment: Proliferation assay, cannabinoids alone and paired (MTT, 48 h)
Conditions: Homo sapiens, CCRF-CEM, read-out: IC50 (concentration required to reduce the cell number by 50%)

CCCCCc1cc(O)c2c(c1)OC(C)(C)[C@@H]1CCC(C)=C[C@@H]21 [THC, Tetrahydrocannabinol]
IC50: 13 ± 0.49 µM

Source: US12161607B2, “Combination of cannabinoids in the treatment of leukemia” (Jazz Pharmaceuticals Research UK Limited, priority 2017, dated 2024)
